The campaign covered roughly 410,000 compounds. About 7,200 (1.8%) were called active. Inconclusive means that the source gave no clear call. Such entries were picked first, then a sample of the others. Calls come from the whole dose curve; as a rule, active = well fitted activation curve with a large enough effect; inconclusive = small, poorly fitted or top-dose-only effect, or another doubt; inactive = no such curve, though single readings can be large or run the other way. A potency beside an inconclusive call is a rough fit, not a confirmed value.
assay: qHTS of TDP-43 Inhibitors; details: TDP-43 expressing yeast growth rescue, BacTiter-Glo, 24 h; growth rescue (activation): at 46.1 µM (top of the series) unless noted; note: nearly all actives have a fitted effect of over 50% in size; for growth rescue (activation): % of control where 0% means no effect
Method in brief: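 Yeast cells expressing TDP-43 under galactose induction are exposed to compounds for 24 hr at 30 deg C. BacTiter-Glo luminescence measures growth, so protective compounds score as activators.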
Potency is the fitted concentration of half-maximal effect; tags give direction and shape of the fitted curve.

Potency, inactive:
Cc1cccc(NC(=O)CSc2nc3c([nH]c4ccccc43)c(=O)n2C)c1C
COc1ccc(C2=CC(=O)C[C@H](c3ccc4c(c3)OCO4)C2)cn1
Cc1c(C(=O)O)cccc1-c1ccc(/C=N/n2cnnc2)o1
COc1ccc(NCc2cc3cc4c(cc3n(CC(=O)Nc3ccc(C)cc3)c2=O)OCO4)cc1
CC(C)Oc1ccc(CNC(=O)Cn2ccc3cc(S(=O)(=O)N4CCCC4)ccc32)cc1
CCc1c(C)c2ccc(OCC(N)=O)cc2oc1=O
O=C(NC(Nc1ncccn1)C(=O)c1ccccc1)c1ccccc1 (configuration not stated)
COc1cc(NC(=O)Cn2ncc3c([nH]c4ccc(C)cc43)c2=O)cc(OC)c1OC
COc1ccc2c(c1OC)C(=O)OC2Nc1nc(-c2ccc(-c3ccccc3)cc2)cs1 (configuration not stated)
O=C(O)C1C2C=CC(C2)C1C(=O)Nc1ccc2c(c1)OCCO2 (configuration not stated)
COc1ccc(-c2noc(CSCC(=O)Nc3cccc(C(F)(F)F)c3)n2)cc1OC
CC(C)CCN(Cc1ccco1)C(=O)c1cc2c(Cl)nc3ccccc3c2s1
CCOC(=O)Cn1c(CN2CCc3ccccc3C2)nc2c1c(=O)n(C)c(=O)n2C
COc1ccc(Cn2c(C(=O)O)c(CNC3CCCCCC3)c3ccc(OC)cc32)cc1
Cc1cccc(NC(=O)c2ccc(N3C(=O)C4C5C=CC(C6CC56)C4C3=O)cc2)c1 (configuration not stated)
CC1CN(S(=O)(=O)c2cccc(-c3cn4ccccc4n3)c2)CC(C)O1 (configuration not stated)
C=Cc1ccc(CN2C(=O)N(c3cccc(Cl)c3)S(=O)(=O)c3ccccc32)cc1
C/C(=N\NC(=O)C1CCCN(S(=O)(=O)c2ccccc2)C1)c1ccccn1 (configuration not stated)
CC(=O)c1ccc(N=Cc2c(O)n(-c3cc(Cl)ccc3N3CCOCC3)c(=O)c3ccccc23)cc1

Potency, active:
O=C(NCCc1csc(-c2cccc(F)c2)n1)c1cccs1 15.8 µM
CCOC(=O)c1ccc(NS(=O)(=O)c2ccc(Br)s2)cc1 17.8 µM
COc1ccc(-c2nc3cc(C)c(Br)c(C)n3c2CC2CCCCC2)cc1OC 22.4 µM
CC(=C1SC(=S)NC1=O)c1ccccc1 12.6 µM

Potency, inconclusive:
CSc1ncccc1C(=O)OCC(=O)Nc1ccc(C)c(S(=O)(=O)N2CCOCC2)c1 35.5 µM [activator, single point]
CC1(C)CC(NCc2ccc3c(c2)OCO3)CCO1 (configuration not stated) 6.31 µM [activator, partial curve]
COc1ccc(-c2csc(C(O)c3ccccc3)n2)cc1 (configuration not stated) 11.2 µM [activator, partial curve]
S=C1NC[C@H](CC2CCCCC2)N1CC1CCCCC1 31.6 µM [activator, single point]
CC(C)(C)c1cccc(OCCCSc2ncccn2)c1 12.6 µM [activator, partial curve]
CC(C)OC(=O)CSc1nnc(CNc2ccc(Cl)cc2)n1Cc1ccccc1 15.8 µM [activator, single point]
O=C(O)CCc1nc(-c2ccccc2)no1 35.5 µM [activator, single point]
CC1CN=C(NC(=O)c2cccc([N+](=O)[O-])c2)S1 (configuration not stated) 11.2 µM [activator, partial curve, poor fit]
COc1cccc(-n2ccnc2SCC(=O)Nc2ccccc2)c1 25.1 µM [activator, partial curve]
Cc1cccc2nc3ccccc3cc12 10 µM [activator, partial curve]
O=C(/C=C/Sc1ccccc1)c1ccccc1 3.55 µM [activator, full curve]
CN(C)/C=C1\Oc2ccc3ccccc3c2C1=O 11.2 µM [activator, partial curve]
Cc1cc(Cl)ccc1OCC(=O)NNC(=O)c1cccs1 15.8 µM [activator, single point]
CCOC(=O)c1ccc(N2CSC3=C(C#N)C(c4cccs4)CC(=O)N3C2)cc1 (configuration not stated) 11.2 µM [activator, partial curve]
CCCCc1c(-c2ccc(F)cc2)ncn1CCc1ccccc1OC 5.01 µM [activator, full curve, poor fit]
CCn1c2ccc(C)cc2c2n[nH]c(=S)nc21 10 µM [activator, partial curve]
CC(=O)Oc1c(Cl)cc(N(C(C)=O)S(=O)(=O)c2ccccc2)c2ccccc12 31.6 µM [activator, single point]
OCCN(/C=N/c1nc(-c2ccc(Br)cc2)cs1)CCO 3.16 µM [activator, single point]
CCCCN(CC)CCNc1c(NC2CCN(C(=O)OCC)CC2)c(=O)c1=O 6.31 µM [activator, partial curve]
NNC(=O)c1cccc(COc2ccc3c(c2)CCC3)c1 31.6 µM [activator, single point]
CCOc1ccc(NC(=S)N2c3ccccc3CC2C)cc1 (configuration not stated) 20 µM [activator, single point]
COc1ccc(C2Nc3cccc4cccc(c34)N2)cc1 35.5 µM [activator, single point]
Cn1c(SCC(=O)Nc2cccnc2Cl)nc2ccccc21 35.5 µM [activator, single point]
CCOC(=O)c1c(C)[nH]sc1=S 35.5 µM [activator, single point]
CCOc1ccc(CC(=O)N2CCN=C2SCc2ccc([N+](=O)[O-])cc2)cc1 35.5 µM [activator, single point]
COc1ccc([N+](=O)[O-])cc1NC(=S)NC(NC(=O)Cc1ccc(OC)c(OC)c1)C(Cl)(Cl)Cl (configuration not stated) 0.891 µM [activator, full curve]
Cc1ccc(CN(c2ccc(C(=O)NCC3CCCO3)cc2)S(C)(=O)=O)cc1 (configuration not stated) 8.91 µM [activator, partial curve]
COc1ccc(CCN2CC(C(=O)OCc3ccccc3Cl)CC2=O)cc1OC (configuration not stated) 35.5 µM [activator, single point]
Cc1c(C(=O)Nc2ccc3c(c2)OCO3)oc2ccccc12 15.8 µM [activator, single point]
Cc1cc2cc(C=C(C#N)C#N)c(Cl)nc2cc1C 25.1 µM [activator, single point]
Cc1ccc(NC(=O)CN(C)C(=O)COc2ccccc2-c2ccccc2)cc1 17.8 µM [activator, single point]
CC(=O)Nc1ccc(NC(=O)C(C)OC(=O)C2(c3ccc(F)cc3)CCCC2)cc1 (configuration not stated) 11.2 µM [activator, partial curve]
CC(C)CC(=O)N1CCN(c2ccc([N+](=O)[O-])c(NCc3ccccc3)c2)CC1 31.6 µM [activator, single point]
CC1=CC(C)(C)Nc2ccc(OC(=O)c3ccco3)cc21 14.1 µM [activator, single point]
Cc1ccc(C(=O)ON=C2CCN(S(=O)(=O)c3ccccc3)CC2)cc1 22.4 µM [activator, single point]
COC(=O)CNC(c1ccccc1)c1cc(Cl)ccc1NC(=O)c1cccc(Cl)c1 (configuration not stated) 35.5 µM [activator, single point]
NCCCN1CCOCC1 2 µM [activator, full curve]
Cc1cccc(-c2nnnn2-c2cccc(C)c2)c1 11.2 µM [activator, single point]
COc1ccccc1C(=O)Nc1nc(-c2ccccc2)ns1 1.41 µM [activator, full curve]
Cc1cccc(NC(=O)/C=C/c2ccc(Cl)cc2)n1 3.98 µM [activator, partial curve]
O=C(Nc1cccc(OC(F)(F)F)c1)c1ccc(Br)o1 35.5 µM [activator, single point]
Cc1ccc(S(=O)(=O)N2CCCC2)cc1C(=O)NC1CCCCC1 5.62 µM [activator, partial curve]
CCOC(=O)C1=CCN(S(=O)(=O)c2ccccc2Br)C1c1cccc(Cl)c1 (configuration not stated) 35.5 µM [activator, single point]
Cc1nn(-c2ccccc2)c(C)c1C(=O)OC(C)C(=O)NC1CCCCC1C (configuration not stated) 20 µM [activator, partial curve]
Cc1cc2c(N3CCCCC3C)ncnc2s1 (configuration not stated) 3.98 µM [activator, single point]
COc1ccc(N2CCN(C(=O)c3ccc4c(c3)CC(c3ccccc3)OC4=O)CC2)cc1 (configuration not stated) 15.8 µM [activator, single point]

Growth rescue (activation), inconclusive:
CC1=CN2C(=N)/C(=C/c3ccc([N+](=O)[O-])o3)C(=O)N=C2S1 -93% [activator]
OCc1c(OCc2cccc(F)c2)ccc2ccccc12 46.7% [activator]

Growth rescue (activation), inactive:
CCOc1ccccc1NC(=O)Nc1nnc(N2CCCCCC2)s1 0% [at 9.22 µM]

Source: PubChem BioAssay AID652104 (National Center for Advancing Translational Sciences (NCATS), 2013)
